In article PMC6212790 one finds binding signal data, which are given here for 172 sequences.

The list shows a part of the results. At the low end of the ranking, values are background and their order means little.

The experiment deals with T1, GST-Rok (full length) (UniProt O34857).
T1 sequence: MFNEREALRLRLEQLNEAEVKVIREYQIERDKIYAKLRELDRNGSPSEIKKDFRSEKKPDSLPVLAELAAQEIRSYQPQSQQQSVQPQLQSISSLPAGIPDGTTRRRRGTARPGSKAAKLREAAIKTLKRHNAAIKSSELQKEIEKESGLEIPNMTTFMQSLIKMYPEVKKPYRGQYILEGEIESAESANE
Briefly: protein binding microarray.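 Further: rank score from −0.5 (least bound) to 0.5 (best bound).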 The settings on record: Rok is a gene silencer of Bacillus subtilis; high values mean tight binding; most listed sequences are background and not binding sites; double strand, one strand shown.
For the sequence CAGATAAC, the binding signal is 0.0882 E-score.

ACCCAGCC registered a binding signal of -0.174 E-score.

GCTGTATA registered a binding signal of 0.000472 E-score.

Regarding GGGGTACA, the binding signal was -0.0851 E-score.

In turn, CAGCTTCC returned a binding signal of -0.172 E-score.

For GCGGTTAC, the binding signal was -0.338 E-score.

For the sequence AGCTGCCT, the binding signal was -0.125 E-score.

AGTAATAC had a binding signal of 0.26 E-score.

Turning to AGCGCAAG, the binding signal is -0.0658 E-score.

Sequence ACCCATAG returned a binding signal of 0.0239 E-score.

Sequence CACTCTGC yielded a binding signal of -0.276 E-score.

Regarding GATTTTTA, the binding signal was 0.114 E-score.

For CAGTGCGG, the binding signal is -0.0903 E-score.

AGACATAG: the binding signal was found to be 0.0456 E-score.

Take AAATCAAA: the binding signal was -0.0854 E-score.

As for ACCGTTAG, the binding signal worked out at 0.0212 E-score.

For the sequence CGTCCGAG, the binding signal was -0.129 E-score.

Turning to TAATGACA, the binding signal worked out at 0.242 E-score.

On to ATATACCC, for which the binding signal amounted to 0.188 E-score.

GATTCGCA registered a binding signal of -0.138 E-score.

In turn, AAGGTCGT returned a binding signal of -0.211 E-score.

Sequence GAGGATGC came in with a binding signal of -0.247 E-score.

In turn, CACCAGCA gave a binding signal of -0.118 E-score.

CGCGGCGC displayed a binding signal of -0.264 E-score.

AAGAGGAC displayed a binding signal of -0.223 E-score.

The sequence ATCCGTTA returned a binding signal of 0.028 E-score.

CTGCTTTC showed a binding signal of -0.273 E-score.

Regarding CTTAAACA, the binding signal was -0.101 E-score.

The sequence CGAAGATA returned a binding signal of 0.283 E-score.

In turn, AACGCACC displayed a binding signal of -0.131 E-score.

Turning to AAGTTAGA, the binding signal was determined as 0.149 E-score.

Turning to CTCGATAC, the binding signal is -0.0192 E-score.

In the case of CATCAATG, the binding signal was -0.0561 E-score.

Take AACGAGCG: the binding signal was -0.28 E-score.

ATCACTGA gave a binding signal of 0.0303 E-score.

Regarding TAGAACTA, the binding signal amounted to 0.406 E-score.

In turn, GAAAACAA returned a binding signal of 0.121 E-score.

ACACGTAT: the binding signal was 0.192 E-score.

In turn, ATCGCGAC displayed a binding signal of -0.046 E-score.

Sequence GAACCGAC returned a binding signal of -0.0645 E-score.

Sequence ACGCAGTG showed a binding signal of -0.125 E-score.

ATCAAACG showed a binding signal of -0.0202 E-score.

CCTCGAAC came in with a binding signal of -0.13 E-score.

The sequence ACTAGCAA showed a binding signal of 0.282 E-score.

In the case of ATTCCAAA, the binding signal turned out to be 0.105 E-score.

On to AAACTGAC, for which the binding signal came to 0.0255 E-score.

Sequence CAAATCGC had a binding signal of 0.119 E-score.

For the sequence AGAACGAT, the binding signal turned out to be 0.143 E-score.

For ATATGCAC, the binding signal was determined as 0.238 E-score.

As to TAGGACCA, the binding signal was -0.0862 E-score.

For the sequence GCGGGCTA, the binding signal is -0.127 E-score.

For GCATTACC, the binding signal is -0.00138 E-score.

Consider GCGTATCC, for which the binding signal was -0.124 E-score.

ATCATGTA: the binding signal was 0.262 E-score.

Consider AACTCCCA, for which the binding signal is -0.0875 E-score.

For the sequence TGGACTAA, the binding signal amounted to 0.0723 E-score.

In the case of GATCGGCC, the binding signal was -0.109 E-score.

ACTGAAAT came in with a binding signal of 0.0309 E-score.

AGTAGACT: the binding signal amounted to 0.0507 E-score.

Turning to CGCGCGAG, the binding signal came to 0.0719 E-score.

Take ACCTCGAG: the binding signal was -0.025 E-score.

Consider GCTGCTAA, for which the binding signal was -0.0548 E-score.

As for AACTCCGC, the binding signal is -0.0584 E-score.

In the case of GGACACCA, the binding signal was -0.155 E-score.

CGGTTAAA gave a binding signal of 0.0392 E-score.

In turn, ACCAGGGA came in with a binding signal of -0.197 E-score.

For ATCCCGTA, the binding signal came out at 0.126 E-score.

In the case of AATTGATC, the binding signal was 0.162 E-score.

Regarding GCCAAAAA, the binding signal was -0.174 E-score.

Turning to ACAGAGGA, the binding signal was -0.0647 E-score.

The sequence AGAAAACC came in with a binding signal of -0.176 E-score.

In turn, AAGTGTTG yielded a binding signal of 0.0958 E-score.

In turn, AGACTACG displayed a binding signal of -0.152 E-score.

GTCAAACA gave a binding signal of 0.122 E-score.

For the sequence GGGGACCA, the binding signal is -0.293 E-score.

As to CATGGAAC, the binding signal was determined as 0.0312 E-score.

Consider AGAGATAA, for which the binding signal came out at 0.125 E-score.

In turn, GTATCCGA gave a binding signal of 0.0485 E-score.

As to AGTGGAAG, the binding signal is -0.131 E-score.

As to ACCTAGGC, the binding signal was -0.176 E-score.

For GAAGTAGC, the binding signal is 0.182 E-score.

GATTAACA yielded a binding signal of 0.0979 E-score.

CTCTACAC came in with a binding signal of 0.0962 E-score.

For the sequence CTTAGGAC, the binding signal is -0.123 E-score.

With ACGCGTCC, the binding signal is -0.141 E-score.

Consider CACCGATA, for which the binding signal is 0.13 E-score.

Consider ACCGGCAA, for which the binding signal is -0.0643 E-score.

In turn, GCTCGTGA displayed a binding signal of -0.283 E-score.

On to GCATATGA, for which the binding signal was determined as 0.0258 E-score.

For the sequence ACCATTCC, the binding signal worked out at 0.0574 E-score.

For ATATGATC, the binding signal was 0.197 E-score.

TCCTAAAA returned a binding signal of 0.13 E-score.

The sequence CGAATAAC had a binding signal of 0.0626 E-score.

The sequence AAGGATCC displayed a binding signal of -0.0838 E-score.

AACGAAGT had a binding signal of -0.0427 E-score.

The sequence ATCGCGGC yielded a binding signal of -0.0451 E-score.

Regarding AAGCGTGC, the binding signal is -0.212 E-score.

As for ACTATCCC, the binding signal amounted to 0.0628 E-score.

GTTGCGCA: the binding signal is 0.0181 E-score.

GGGGGAAA yielded a binding signal of -0.199 E-score.

Sequence ATAGCTCA came in with a binding signal of 0.148 E-score.

Consider TGCCATAA, for which the binding signal was found to be 0.0385 E-score.

In turn, CTACTGAG came in with a binding signal of 0.104 E-score.

The sequence ATCGCCAG had a binding signal of 0.112 E-score.

As for ATAACAAC, the binding signal came out at 0.153 E-score.

Sequence ACGATATG had a binding signal of 0.103 E-score.

Turning to AGTGATTC, the binding signal is -0.0869 E-score.

The sequence CTTCAGGC had a binding signal of -0.172 E-score.

ACATTAAA displayed a binding signal of 0.108 E-score.

With AAATGATT, the binding signal was -0.0952 E-score.

For ACCGCTAG, the binding signal came to 0.138 E-score.

ACCGGGCA had a binding signal of -0.206 E-score.

AACAAATT showed a binding signal of 0.215 E-score.

As for CCCCATAG, the binding signal is -0.319 E-score.

The sequence AATCGCGG displayed a binding signal of 0.0346 E-score.

In turn, CCCGATCC had a binding signal of -0.0948 E-score.

Turning to CTCGATTA, the binding signal worked out at 0.124 E-score.

ATCATGCC returned a binding signal of 0.0705 E-score.

AAACCGAA returned a binding signal of 0.147 E-score.

In turn, CCGGGGCC returned a binding signal of -0.313 E-score.

Turning to ATTCGTTG, the binding signal was found to be 0.144 E-score.

Take GCCGGGAA: the binding signal is -0.201 E-score.

For GTAGCCTA, the binding signal turned out to be 0.06 E-score.

As for AAATGATA, the binding signal came out at 0.37 E-score.

Consider TAGCTGGA, for which the binding signal is -0.163 E-score.

The sequence ATTCACTA gave a binding signal of 0.247 E-score.

As to CGCGCAAA, the binding signal stood at 0.104 E-score.

For the sequence ACAAGCTG, the binding signal was -0.138 E-score.

As for TATCGACA, the binding signal stood at 0.121 E-score.

For AGAATGCT, the binding signal stood at 0.0696 E-score.

ATTACGGC yielded a binding signal of 0.00334 E-score.

In the case of GACCTCTC, the binding signal is -0.376 E-score.

As to GGCAGGCA, the binding signal was -0.26 E-score.

On to CCGCTGGA, for which the binding signal was -0.31 E-score.

The sequence AATCTCGA registered a binding signal of 0.21 E-score.

ATTCTTGC showed a binding signal of 0.103 E-score.

Regarding TAGCCCCA, the binding signal is -0.173 E-score.

With ACTCGTTG, the binding signal turned out to be 0.148 E-score.

In turn, CTTCGAAG yielded a binding signal of 0.0549 E-score.

In turn, GCCTGAGC yielded a binding signal of -0.264 E-score.

For the sequence GGCCTACC, the binding signal was -0.0792 E-score.

For ACGAACAT, the binding signal was 0.143 E-score.

ACCGATTA gave a binding signal of 0.0737 E-score.

On to GTAAACAC, for which the binding signal is 0.125 E-score.

For GTAGACCA, the binding signal was -0.0718 E-score.

AGCAAAGA: the binding signal was 0.0273 E-score.

CCTCAACG: the binding signal is -0.0548 E-score.

In turn, AGGTATCA had a binding signal of 0.177 E-score.

ACTATTGA showed a binding signal of 0.288 E-score.

GGTCAAAC returned a binding signal of -0.0283 E-score.

ATTTTAAC displayed a binding signal of 0.209 E-score.

ACCGATAG gave a binding signal of 0.0776 E-score.

ACCGATCT gave a binding signal of 0.211 E-score.

As for AGCGCTAC, the binding signal was determined as 0.128 E-score.

CTATTGTC yielded a binding signal of -0.0651 E-score.

On to CGAGTTGA, for which the binding signal was 0.112 E-score.

Turning to AAACGTCT, the binding signal was -0.171 E-score.

Sequence AGCTCCGC yielded a binding signal of -0.314 E-score.

Sequence GATATCCC had a binding signal of -0.129 E-score.

CTTATCAA gave a binding signal of 0.085 E-score.

CCGTACTC gave a binding signal of -0.0271 E-score.

In turn, CAAGGATG had a binding signal of -0.0788 E-score.

Sequence GGTAACTA yielded a binding signal of 0.305 E-score.

ACAGCGGG displayed a binding signal of -0.233 E-score.

In the case of GCGAGCAC, the binding signal is -0.246 E-score.

Consider AAGGCTTC, for which the binding signal is -0.328 E-score.

With ATACCTAA, the binding signal stood at 0.276 E-score.

Sequence AGAGAAAG displayed a binding signal of -0.146 E-score.

AAAAACCG had a binding signal of -0.0149 E-score.

As for GCTGGTAC, the binding signal is 0.115 E-score.

GTTCACAA displayed a binding signal of 0.00461 E-score.

With ACCCTAAT, the binding signal was -0.166 E-score.
